From the RNAGym collection of RNA variant scans (doi:10.1093/nar/gkz1192)
The source gives no read counts; variants with many changes may rest on few reads.

B1: CPEB3 Ribozyme (parent)
chain: UAACAGGGGGCCACAGCAGAAGCGUUCACGUCGCAGCCCCUGUCAGAUUCUGGUGAAUCUGCGAAUUCUGCUGUAUAUCUC

Variants of: B1
Assay: self-cleavage, relative activity (ratio to wild type); higher = more cleavage; in vitro, sequencing
Summary of the method: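 Libraries of CPEB3 self-cleaving ribozyme mutants came from rounds of error-prone PCR and carried barcodes, which DNA sequencing matched to variants. In vitro transcription used T7 RNA polymerase at 37°C for 5 hours, with a further 15 min in DNase I before EDTA stopped the reaction; the ribozymes cleaved during both steps. The RNA was reverse transcribed with template switching and sequenced on Illumina. Relative activity is the cleaved/total read fraction of a variant divided by that of the unmutated ribozyme, averaged over three batches with at least 5 reads.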

| Variant | self-cleavage |
| --- | --- |
| A18C A45C C62A A64G A75G | 0.08 |
| A18C A45G A57C A77G | 0.08 |
| A18C A45G U49C U51A A64G | 0.11 |
| A18C A45G U51A A65G C79U | 0.3 |
| A18C A45U A65G | 0.21 |
| A18C A56G A77G | 0.39 |
| A18C A57G G63A C81A | 0.57 |
| A18C C23U A45G U51A U69A U78A | 0.06 |
| A18C C23U U41C | 0.2 |
| A18C C32A G46A | 0.16 |
| A18C C59U U80C | 0.35 |
| A18C G19A U60C | 0.19 |
| A18C G19U G33A A65U U78C | 0.06 |
| A18C G30A A47C A64G | 0.13 |
| A18C G30A U48C U54A U67C | 0.12 |
| A18C G33U G46A U67C U80A | 0.05 |
| A18C G33U U48C U49C C62U | 0.12 |
| A18C U25A U60C | 0.18 |
| A18C U25C A35G C62A U67C U72C U74A | 0.09 |
| A18C U25C A35G U48C U60C | 0 |
| A18C U25C A56G | 0.43 |

| Variant | self-cleavage |
| --- | --- |
| A18C U25C C40U U51C U74A A75G | 0.11 |
| A18C U26C A35U U48C A65G | 0.18 |
| A18C U26C U51C A56G U80C | 0.11 |
| A18C U26G C39U A56G U60A | 0.15 |
| A18C U31A A45G U51C A64U | 0.07 |
| A18C U31A G52A | 0.35 |
| A18C U31A U41C | 0.8 |
| A18C U31C G36A U54C C59A | 0.16 |
| A18C U31C G63U U67C U78A | 0.05 |
| A18C U31C U54C C59A U78G | 0.02 |
| A18C U31C U69C U80A | 0.16 |
| A18C U41A A77G | 0 |
| A18C U41C A57G | 0.16 |
| A18C U43C G52U U69C | 0.14 |
| A18C U43C U72C U76C | 0.24 |
| A18C U49C A65G U72C | 0.07 |
| A18C U49C G53A | 0.21 |
| A18C U51A U60A G73A U80C | 0.16 |
| A18C U51A U80C | 0.31 |
| A18C U51C G52U A56G A64G U72C U80C | 0.09 |
| A18C U51C G73A | 0.63 |

| Variant | self-cleavage |
| --- | --- |
| A18C U54C A57U | 0.62 |
| A18C U58C A75U A77G | 0.17 |
| A18C U67G U69C | 0.09 |
| A18C U72A U76C | 0.36 |
| A18C U72C U80A | 0.53 |
| A18G A20C A45G A57G U74C | 0.17 |
| A18G A20C U25C U67C | 0.07 |
| A18G A20C U80A | 0.02 |
| A18G A20G A21G U41A | 0.26 |
| A18G A20G A28G | 0.37 |
| A18G A20G A64U | 0.35 |
| A18G A20G A65G U69C | 0.22 |
| A18G A20G G36U U43C U76C | 0.21 |
| A18G A20G U25C U26C U54A A64G | 0.41 |
| A18G A20G U25C U31C G61C U66C U74A | 0.14 |
| A18G A20G U26A U43C U49C A57G U74C | 0.18 |
| A18G A20G U31C U41C U76C | 0.02 |
| A18G A20G U41C U58C A65U U72A | 0.13 |
| A18G A20G U43C | 0.08 |
| A18G A20G U51A U54A U60A U67C | 0.29 |
| A18G A20G U51A U72C | 0.15 |

| Variant | self-cleavage |
| --- | --- |
| A18G A20G U67C | 0.39 |
| A18G A20G U69C | 1.04 |
| A18G A20U A21G U51C U60C G73A | 0.03 |
| A18G A20U A28G U41A A45G | 0.33 |
| A18G A20U A35G U54C U78C | 0.36 |
| A18G A20U A45G U60A | 0.16 |
| A18G A20U C37U U69C U76C | 0.11 |
| A18G A20U U25C U60C | 0.14 |
| A18G A20U U41A A45U A75U U78A | 0.05 |
| A18G A20U U41C | 0.23 |
| A18G A20U U51C A56U U74A | 0.09 |
| A18G A20U U58C | 0.06 |
| A18G A20U U60C | 0.1 |
| A18G A20U U72A U78C | 0.14 |
| A18G A21C U58C U80C | 0.28 |
| A18G A21G A35U U51G | 0.33 |
| A18G A21G A45G U48A U54A | 0.47 |
| A18G A21G A45U A64G | 0.49 |
| A18G A21G A47G U74C | 0.29 |
| A18G A21G A56G U80C | 0.45 |
